# Reference: the supplement of paper PMC8728848
# The other results are listed elsewhere or left out.
# B1: 3FTT (Staphylococcus aureus), Q5HCZ5 (protein)
# chain: MTEKEKMLAEKWYDANFDQYLINERARAKDICFELNHTRPSATNKRKELIDQLFQTTTDNVSISIPFDTDYGWNVKLGKNVYVNTNCYFMDGGQITIGDNVFIGPNCGFYTATHPLNFHHRNEGFEKAGPIHIGSNTWFGGHVAVLPGVTIGEGSVIGAGSVVTKDIPPHSLAVGNPCKVVRKIDNDLPSETLNDETIK
# Tests used:
# Assay in all cases: glycan array binding signal (z-score within array); higher = stronger binding
# Conditions in all cases: glycan notation: IUPAC condensed, linker removed
# [1] = target: Gal(b1-3)[Fuc(a1-4)]GlcNAc(b1-3)Gal(b1-4)GlcNAc
# Method in brief: (§1)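 Columns mapping to the same glycan were averaged after glycan names were converted to IUPAC-condensed notation. The data come from 3228 arrays in the Consortium for Functional Glycomics database, limited to those with an available protein sequence. Binding is reported as a within-array Z-score averaged across arrays of one protein sequence and across linkers.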
# [2] = target: Gal(b1-3)[Fuc(a1-4)]GlcNAc(b1-3)Gal(b1-4)[Fuc(a1-3)]GlcNAc
# Method in brief: as §1
# [3] = target: Gal(b1-3)[GlcNAc(b1-6)]GalNAc
# Method in brief: as §1
# [4] = target: Gal(b1-3)[Neu5Ac(a2-6)]GalNAc
# Method in brief: as §1
# [5] = target: Gal(b1-3)[Neu5Ac(a2-6)]GlcNAc(b1-6)Gal(b1-4)Glc
# Method in brief: as §1
# [6] = target: Gal(b1-3)[Neu5Ac(b2-6)]GalNAc
# Method in brief: as §1
# Gal(b1-4)Gal = target: Gal(b1-4)Gal
# Method in brief: as §1
# [7] = target: Gal(b1-4)GalNAc(a1-3)[Fuc(a1-2)]Gal(b1-4)GlcNAc
# Method in brief: as §1
# [8] = target: Gal(b1-4)GalNAc(b1-3)[Fuc(a1-2)]Gal(b1-4)GlcNAc
# Method in brief: as §1
# Gal(b1-4)Glc = target: Gal(b1-4)Glc
# Method in brief: as §1
# Gal(b1-4)Glc6S = target: Gal(b1-4)Glc6S
# Method in brief: as §1
# Gal(b1-4)GlcNAc = target: Gal(b1-4)GlcNAc
# Method in brief: as §1
# [9] = target: Gal(b1-4)GlcNAc(a1-6)Gal(b1-4)GlcNAc
# Method in brief: as §1
# Gal(b1-4)GlcNAc(b1-2)Man = target: Gal(b1-4)GlcNAc(b1-2)Man
# Method in brief: as §1
# [10] = target: Gal(b1-4)GlcNAc(b1-2)Man(a1-3)Man(b1-4)GlcNAc(b1-4)GlcNAc
# Method in brief: as §1
# [11] = target: Gal(b1-4)GlcNAc(b1-2)Man(a1-3)[Gal(b1-4)GlcNAc(b1-2)Man(a1-6)]Man(b1-4)GlcNAc(b1-4)GlcNAc
# Method in brief: as §1
# [12] = target: Gal(b1-4)GlcNAc(b1-2)Man(a1-3)[Gal(b1-4)GlcNAc(b1-2)Man(a1-6)]Man(b1-4)GlcNAc(b1-4)[Fuc(a1-6)]GlcNAc
# Method in brief: as §1
# [13] = target: Gal(b1-4)GlcNAc(b1-2)Man(a1-3)[Gal(b1-4)GlcNAc(b1-2)][GlcNAc(b1-4)]Man(b1-4)GlcNAc(b1-4)GlcNAc
# Method in brief: as §1
# [14] = target: Gal(b1-4)GlcNAc(b1-2)Man(a1-3)[GlcNAc(b1-2)Man(a1-6)]Man(b1-4)GlcNAc(b1-4)GlcNAc
# Method in brief: as §1
# [15] = target: Gal(b1-4)GlcNAc(b1-2)Man(a1-3)[Man(a1-6)]Man(b1-4)GlcNAc(b1-4)GlcNAc
# Method in brief: as §1
# [16] = target: Gal(b1-4)GlcNAc(b1-2)Man(a1-6)Man(b1-4)GlcNAc(b1-4)GlcNAc
# Method in brief: as §1
# [17] = target: Gal(b1-4)GlcNAc(b1-2)Man(a1-6)[GlcNAc(b1-2)Man(a1-3)]Man(b1-4)GlcNAc(b1-4)GlcNAc
# Method in brief: as §1
# [18] = target: Gal(b1-4)GlcNAc(b1-2)Man(a1-6)[Man(a1-3)]Man(b1-4)GlcNAc(b1-4)GlcNAc
# Method in brief: as §1
# [19] = target: Gal(b1-4)GlcNAc(b1-2)[Gal(b1-4)GlcNAc(b1-4)]Man(a1-3)[Gal(b1-4)GlcNAc(b1-2)Man(a1-6)]Man(b1-4)GlcNAc(b1-4)GlcNAc
# Method in brief: as §1
# [20] = target: Gal(b1-4)GlcNAc(b1-2)[Gal(b1-4)GlcNAc(b1-4)]Man(a1-3)[Gal(b1-4)GlcNAc(b1-2)[Gal(b1-4)GlcNAc(b1-6)]Man(a1-6)]Man(b1-4)GlcNAc(b1-4)GlcNAc
# Method in brief: as §1
# [21] = target: Gal(b1-4)GlcNAc(b1-2)[Gal(b1-4)GlcNAc(b1-4)]Man(a1-3)[GlcNAc(b1-4)][Gal(b1-4)GlcNAc(b1-2)Man(a1-6)]Man(b1-4)GlcNAc(b1-4)GlcNAc
# Method in brief: as §1
# [22] = target: Gal(b1-4)GlcNAc(b1-2)[Gal(b1-4)GlcNAc(b1-4)]Man(a1-3)[GlcNAc(b1-4)][Gal(b1-4)GlcNAc(b1-2)[Gal(b1-4)GlcNAc(b1-6)]Man(a1-6)]Man(b1-4)GlcNAc(b1-4)GlcNAc
# Method in brief: as §1
# [23] = target: Gal(b1-4)GlcNAc(b1-2)[Gal(b1-4)GlcNAc(b1-6)]Man(a1-6)[Gal(b1-4)GlcNAc(b1-2)Man(a1-3)]Man(b1-4)GlcNAc(b1-4)GlcNAc
# Method in brief: as §1
# [24] = target: Gal(b1-4)GlcNAc(b1-2)[Gal(b1-4)GlcNAc(b1-6)]Man(a1-6)[GlcNAc(b1-4)][Gal(b1-4)GlcNAc(b1-2)Man(a1-3)]Man(b1-4)GlcNAc(b1-4)GlcNAc
# Method in brief: as §1
# [25] = target: Gal(b1-4)GlcNAc(b1-3)Gal(b1-3)GlcNAc
# Method in brief: as §1
# [26] = target: Gal(b1-4)GlcNAc(b1-3)Gal(b1-4)Glc
# Method in brief: as §1
# [27] = target: Gal(b1-4)GlcNAc(b1-3)Gal(b1-4)GlcNAc
# Method in brief: as §1
# [28] = target: Gal(b1-4)GlcNAc(b1-3)Gal(b1-4)GlcNAc(b1-3)Gal(b1-4)GlcNAc
# Method in brief: as §1
# [29] = target: Gal(b1-4)GlcNAc(b1-3)Gal(b1-4)[Fuc(a1-3)GlcNAc(b1-6)]Gal(b1-4)Glc
# Method in brief: as §1
# [30] = target: Gal(b1-4)GlcNAc(b1-3)Gal(b1-4)[Fuc(a1-3)]GlcNAc(b1-3)Gal(b1-4)[Fuc(a1-3)]GlcNAc
# Method in brief: as §1
# [31] = target: Gal(b1-4)GlcNAc(b1-3)GalNAc
# Method in brief: as §1
# [32] = target: Gal(b1-4)GlcNAc(b1-3)[Gal(b1-4)GlcNAc(b1-6)]Gal(b1-4)GlcNAc
# Method in brief: as §1
# [33] = target: Gal(b1-4)GlcNAc(b1-3)[Gal(b1-4)GlcNAc(b1-6)]GalNAc
# Method in brief: as §1
# [34] = target: Gal(b1-4)GlcNAc(b1-3)[GlcNAc(b1-6)]Gal(b1-4)GlcNAc
# Method in brief: as §1
# [35] = target: Gal(b1-4)GlcNAc(b1-6)Gal(b1-4)GlcNAc
# Method in brief: as §1
# [36] = target: Gal(b1-4)GlcNAc(b1-6)GalNAc
# Method in brief: as §1
# [37] = target: Gal(b1-4)GlcNAc(b1-6)[Gal(b1-3)]GalNAc
# Method in brief: as §1
# Gal(b1-6)Gal = target: Gal(b1-6)Gal
# Method in brief: as §1
# Gal3S(b1-3)GalNAc = target: Gal3S(b1-3)GalNAc
# Method in brief: as §1
# Gal3S(b1-3)GlcNAc = target: Gal3S(b1-3)GlcNAc
# Method in brief: as §1
binder,measurement,setting,value
B1,glycan array binding signal (z-score),[1],-0.017
same,glycan array binding signal (z-score),[2],-0.198
same,glycan array binding signal (z-score),[3],-0.192
same,glycan array binding signal (z-score),[4],-0.236
same,glycan array binding signal (z-score),[5],0.085
same,glycan array binding signal (z-score),[6],-0.136
same,glycan array binding signal (z-score),Gal(b1-4)Gal,0.15
same,glycan array binding signal (z-score),[7],-0.017
same,glycan array binding signal (z-score),[8],-0.055
same,glycan array binding signal (z-score),Gal(b1-4)Glc,-0.098
same,glycan array binding signal (z-score),Gal(b1-4)Glc6S,-0.204
same,glycan array binding signal (z-score),Gal(b1-4)GlcNAc,-0.074
same,glycan array binding signal (z-score),[9],0.176
same,glycan array binding signal (z-score),Gal(b1-4)GlcNAc(b1-2)Man,0.22
same,glycan array binding signal (z-score),[10],0.088
same,glycan array binding signal (z-score),[11],-0.246
same,glycan array binding signal (z-score),[12],0.077
same,glycan array binding signal (z-score),[13],-0.1
same,glycan array binding signal (z-score),[14],-0.216
same,glycan array binding signal (z-score),[15],-0.261
same,glycan array binding signal (z-score),[16],0.153
same,glycan array binding signal (z-score),[17],-0.191
same,glycan array binding signal (z-score),[18],0.017
same,glycan array binding signal (z-score),[19],-0.288
same,glycan array binding signal (z-score),[20],-0.262
same,glycan array binding signal (z-score),[21],-0.023
same,glycan array binding signal (z-score),[22],0.039
same,glycan array binding signal (z-score),[23],-0.241
same,glycan array binding signal (z-score),[24],-0.316
same,glycan array binding signal (z-score),[25],0.053
same,glycan array binding signal (z-score),[26],0.019
same,glycan array binding signal (z-score),[27],-0.015
same,glycan array binding signal (z-score),[28],0.021
same,glycan array binding signal (z-score),[29],-0.066
same,glycan array binding signal (z-score),[30],-0.058
same,glycan array binding signal (z-score),[31],-0.132
same,glycan array binding signal (z-score),[32],0.117
same,glycan array binding signal (z-score),[33],-0.141
same,glycan array binding signal (z-score),[34],-0.193
same,glycan array binding signal (z-score),[35],-0.189
same,glycan array binding signal (z-score),[36],-0.111
same,glycan array binding signal (z-score),[37],-0.089
same,glycan array binding signal (z-score),Gal(b1-6)Gal,-0.004
same,glycan array binding signal (z-score),Gal3S(b1-3)GalNAc,-0.317
same,glycan array binding signal (z-score),Gal3S(b1-3)GlcNAc,-0.115
